Results taken from the supplement of paper PMC10185492.
Some of the results follow. Read counts after selection give these values, which scatter widely.

system: SARS-CoV-2 3CLpro (nsp5); experiment: substrate phage enrichment score (protease-eluted vs HEPES control, +1 offset) (ratio); higher = better cleaved substrate; settings: selection round: 3; protease elution time: 0.5 h
Procedure: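 Random heptapeptide substrate phage display (M13 pIII fusion, heptapeptide between an N-terminal biotinylated AviTag GLNDIFEAQKIEWHE and pIII; phages immobilised on streptavidin) eluted by cleavage with 50 nM protease in 20 mM HEPES at 37 °C. Selected phages were NGS sequenced, and the enrichment score is (reads in protease sample + 1)/(reads in HEPES blank-selection control + 1).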

| Substance | substrate phage enrichment score |
| --- | --- |
| TWDGLLN | 10.5 |
| DRADWKH | 1.22 |
| SAAAQHH | 1.06 |
| AAAPHHH | 1.42 |
| TKCTGEC | 4.5 |
| PYNVRQT | > 21 |
| AMESPSS | > 23 |
| SCLNCRQ | > 23 |
| NPALGTR | > 23 |
| SWWQESS | > 25 |
| ERNVNCS | 30.2 |
| CSVLQSH | > 155 |
| RSPLHCY | 10 |
| ETEQNWT | 2.14 |
| VGPHIII | 2.7 |
| NTILQAD | > 30 |
| DKRTTDW | > 26 |
| AGLMCSP | 0.72 |
| RAHVPTE | 3.14 |
| RQYFQGG | 1.91 |
| CAHTTLQ | 18 |
| KPILQSS | > 29 |
| SQPKPKP | 1.5 |

| Substance | substrate phage enrichment score |
| --- | --- |
| NTQVSRF | 0.75 |
| ELKSRQT | 2.6 |
| SAATHHH | 0.622 |
| VKTQASE | 5.67 |
| CEAAHHH | 0.901 |
| ICNSGNE | 1.76 |
| PMSKHWQ | 10.5 |
| QEFHTRA | > 24 |
| AGNGMPW | 0.238 |
| AHREEIP | 3 |
| QNGTKTT | > 40 |
| ICTMSAT | 0.729 |
| GKLQSAT | > 56 |
| CVHMQSG | > 28 |
| SNSCYEW | 6.5 |
| LNSSTPR | 4.2 |
| QPYFQGG | 1.88 |
| SRATMPG | > 30 |
| LSAAHHH | 0.817 |
| LGLVCRG | > 23 |
| TVAAHHH | 0.821 |
| VLQGRET | > 42 |
| LAEYRDR | 12.5 |

| Substance | substrate phage enrichment score |
| --- | --- |
| EPAAHHH | 0.375 |
| SAAAHNH | 1.41 |
| KRDLNRL | 3.33 |
| VLLMHST | > 26 |
| EWRCVLQ | 154 |
| YYRPDWD | > 25 |
| AVKHRNR | 6.14 |
| CRSRRVS | 0.0714 |
| VSKTTLQ | > 29 |
| PTNEGLM | 6.17 |
| LTGNYGR | 1.92 |
| ASAHHHH | 1.06 |
| SHPQRLE | 2.87 |
| CEAKNRS | 2 |
| LQGISRQ | 4.75 |
| AAAAHHH | 1.33 |
| KRGTTPC | 1.5 |
| RHLELNS | 2.14 |
| KLETPCR | 2.33 |
| SNAAHHH | 1.18 |
| FSPQTSQ | > 37 |
| DCRLNEC | > 30 |
| AHEWREH | 0.462 |

| Substance | substrate phage enrichment score |
| --- | --- |
| EKNTTLQ | 220 |
| SAAAHHK | 1.77 |
| LYLQGGS | 1.54 |
| TQAEDYR | 10 |
| SAAPHHH | 0.667 |
| VHGVKLQ | > 44 |
| AHRHYVG | 11 |
| RYPTYSR | 1.27 |
| ELSANTH | > 36 |
| SAWLQGD | > 22 |
| CEDTRNS | > 22 |
| VQNCRLI | 1.09 |
| NSLHPMR | > 22 |
| DLNSPAA | 0.556 |
| MWAPQHR | 5.8 |
| LGAAHHH | 0.917 |
| AQLSEHR | > 54 |
| NRIDAYG | 4.17 |
| VQDLSLI | 11 |
| AVLLQSR | > 82 |
| ANRQCVP | 4.18 |
| CGRTSSS | 0.961 |
| SHNVAPR | > 22 |

| Substance | substrate phage enrichment score |
| --- | --- |
| PTAHHHH | 0.515 |
| LFEWHSP | 4.5 |
| TESKCYP | > 42 |
| PDAAHHH | 1.3 |
| CKSKSEN | 2.59 |
| ASQSNAR | 1.33 |
| RETELNS | > 22 |
| RYSPSTV | 0.846 |
| VGAVRGT | 2 |
| DVTTTWQ | > 21 |
| AHHHHHH | 1.28 |
| DHTVLQC | > 30 |
| VCSGNRF | 2.56 |
| RSARLHC | 5.5 |
| APAHHHH | 1.02 |
| MRSTSLQ | > 27 |
| TSRPCAG | 4.25 |
| QYAKDRE | 2.7 |
| HGSQHNG | 2.08 |
| ELFAYPQ | > 38 |
| NGVCMTH | > 33 |
| AAGTGEC | 9.33 |
| EFHSQAT | 9 |

| Substance | substrate phage enrichment score |
| --- | --- |
| QSSCGQG | 3.38 |
| SKISGCR | > 21 |
| TNRALIT | 2.33 |
| STTAHHH | 0.917 |
| SERPLSG | 1.2 |
| QRSTCPK | 1.56 |
| RAAAHQH | 1.19 |
| TYEPTPY | 3.33 |
| PTTKADP | > 25 |
| GVAAHHH | 0.769 |
| CAAAHHN | 0.857 |
| NAQESRL | 0.769 |
| TYHLTDQ | 1.8 |
| KNHTTKQ | > 24 |
| CREPIYR | 3.29 |
| VTKLRLP | 0.1 |
| CPKGELT | 4.33 |
| QARLQAC | > 22 |
| RRTILHA | 36 |
| TKAQEKA | 16 |
| EQPHTME | 1.08 |
| VNKAGIS | > 34 |
| VRTEDAW | > 21 |

| Substance | substrate phage enrichment score |
| --- | --- |
| SAVWSPG | 2.7 |
| PTEMSNQ | > 21 |
| IEAAHHH | 1.26 |
| RLYFQGG | 0.923 |
| MQSHNQL | > 40 |
| EPSFQGG | 2.83 |
| SKAAHHH | 0.865 |
| SENQSMR | 13.5 |
| NLNAHLQ | > 26 |
| DQKQGAR | 2.62 |
| DRGCILN | 20.5 |
| RERQFCD | 2.38 |
| TTGVSRQ | > 32 |
| MTPGSQY | 10 |
| AASIILQ | > 35 |
| KSHLQPH | 2.1 |
| TATAHPQ | > 24 |
| AHNYSPR | 5.33 |
| RRCVARS | 1.41 |
| TQCKYVG | 2.36 |
| SAVAHHH | 0.931 |
| PCCSRLQ | > 78 |
| NRAEDAW | 0.917 |

| Substance | substrate phage enrichment score |
| --- | --- |
| RADAASQ | 2.83 |
| SQGKSNL | 1.55 |
| IPAAHHH | 1.26 |
| PRDTRDS | > 30 |
| NSYTELQ | > 35 |
| SGDLKPA | 2.25 |
| NFQGGSA | 1.24 |
| LQRAERR | > 33 |
| SVWNTQL | 5.25 |
| RYETSTG | 1.3 |
| YEAAHHH | 1.13 |
| QAMGSKS | > 33 |
| GAPAHHH | 1.78 |
| LTQVNQR | 4.33 |
| LYVQGGS | 1.18 |
| SGGSAAA | 0.409 |
| LRGCSLR | > 28 |
| QPYHIDR | 6.75 |
| APLPVLQ | 13 |
| RATTKLQ | > 94 |
| RNHSTKS | 3.17 |
| HLEQPFN | 6.75 |
